In the antibiotic and cytotoxicity screens of Wong et al. (2023) one finds growth inhibition call data, which are given here for 11 compounds.

Some of the results follow.

This assay concerns S. aureus RN4220. Kind of assay: growth inhibition call (relative growth <= 0.2). As to conditions: 50 µM.
As to `c1ccc2nc(C3=NCCN3)cnc2c1`, the growth inhibition call is “inactive”.

In the case of `CCNC(=O)c1cc2c(c(-c3cccc(-c4cccc(F)c4)c3)n1)[C@H](CCO)N([S@@](=O)C(C)(C)C)C2`, the growth inhibition call was “inactive”.

Consider `Cc1ccc(-c2cnc3c(c2)C(=O)N([C@@H](C)CO)C[C@H](C)[C@H](CN(C)C(=O)Cc2ccncc2)O3)cc1`, for which the growth inhibition call is “inactive”.

As for `CN(CCN)C1CCCCC1`, the growth inhibition call was “inactive”.

Turning to `C[C@@H]1CCCCO[C@@H](CN(C)C(=O)C2CCCCC2)[C@H](C)CN([C@H](C)CO)C(=O)c2cc(NS(=O)(=O)c3ccc(F)cc3)ccc2O1`, the growth inhibition call was “inactive”.

`C[C@@H]1CN([C@@H](C)CO)C(=O)c2cc(NS(=O)(=O)c3ccc(Cl)cc3)ccc2O[C@@H](C)CCCCO[C@H]1CN(C)Cc1ccncc1`: the growth inhibition call was “inactive”.

With `C[C@H]1CN([C@@H](C)CO)C(=O)Cc2cc(NC(=O)CCN3CCOCC3)ccc2O[C@H]1CN(C)C(=O)Nc1ccccc1`, the growth inhibition call is “inactive”.

Turning to `C[C@@H]1CCCCO[C@H](CN(C)Cc2ccc(C(F)(F)F)cc2)[C@@H](C)CN([C@@H](C)CO)C(=O)c2cc(NC(=O)CCCN(C)C)ccc2O1`, the growth inhibition call is “inactive”.

In the case of `O=C(C[C@H]1CC[C@H]2[C@@H](COC[C@@H](O)CN2S(=O)(=O)c2ccc(Oc3ccccc3)cc2)O1)NC1CCC1`, the growth inhibition call was “inactive”.

Turning to `COc1ccc(NC(=O)N(C)C[C@@H]2OCCCC[C@@H](C)Oc3ccc(NC(=O)CCC(F)(F)F)cc3C(=O)N([C@H](C)CO)C[C@H]2C)cc1`, the growth inhibition call is “inactive”.

For `C[C@@H]1CN([C@H](C)CO)C(=O)Cc2cc(NC(=O)CCN3CCOCC3)ccc2O[C@@H]1CN(C)C(=O)Nc1ccccc1`, the growth inhibition call was “inactive”.
